Assay results reported in PubChem BioAssay AID504332 (National Center for Advancing Translational Sciences (NCATS), 2011).
In all, about 350,000 compounds went through this assay and about 31,000 (8.9%) were called active. The inconclusive results got no clear call from the source; some entries with a clear call stand among them for comparison. Calls follow the shape of the dose curve; as a rule, active = well fitted inhibition curve with a large enough effect; inconclusive = small, poorly fitted or top-dose-only effect; inactive = no such curve, though single readings can be large or run the other way. Potencies of inconclusive entries are doubtful fits and often do not repeat.

molecular target: Histone-lysine N-methyltransferase EHMT2 (Homo sapiens) (UniProt Q96KQ7); experiment: qHTS Assay for Inhibitors of Histone Lysine Methyltransferase G9a; conditions: G9a H3K9 monomethylation, AlphaScreen, 2 h; activity, negative = inhibition: at 59 µM (top of the series) unless noted; also: nearly all actives have a fitted effect of over 75% in size
Procedure, shortened: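 Compounds were preincubated with 20 nM G9a for 15 min, after which biotinylated H3K9 peptide (500 nM) and SAM (20 uM) started a 2 h room-temperature reaction. Monomethylated product was quantified by antibody-based AlphaScreen chemiluminescence.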
% is scaled to controls: 0 for no effect and ±100 for the full control effect; potency is read from the fitted curve at half-maximal effect; tags tell the direction and shape of the fitted curve.

Chain of UniProt Q96KQ7 (Q96KQ7 whole entry, looked up): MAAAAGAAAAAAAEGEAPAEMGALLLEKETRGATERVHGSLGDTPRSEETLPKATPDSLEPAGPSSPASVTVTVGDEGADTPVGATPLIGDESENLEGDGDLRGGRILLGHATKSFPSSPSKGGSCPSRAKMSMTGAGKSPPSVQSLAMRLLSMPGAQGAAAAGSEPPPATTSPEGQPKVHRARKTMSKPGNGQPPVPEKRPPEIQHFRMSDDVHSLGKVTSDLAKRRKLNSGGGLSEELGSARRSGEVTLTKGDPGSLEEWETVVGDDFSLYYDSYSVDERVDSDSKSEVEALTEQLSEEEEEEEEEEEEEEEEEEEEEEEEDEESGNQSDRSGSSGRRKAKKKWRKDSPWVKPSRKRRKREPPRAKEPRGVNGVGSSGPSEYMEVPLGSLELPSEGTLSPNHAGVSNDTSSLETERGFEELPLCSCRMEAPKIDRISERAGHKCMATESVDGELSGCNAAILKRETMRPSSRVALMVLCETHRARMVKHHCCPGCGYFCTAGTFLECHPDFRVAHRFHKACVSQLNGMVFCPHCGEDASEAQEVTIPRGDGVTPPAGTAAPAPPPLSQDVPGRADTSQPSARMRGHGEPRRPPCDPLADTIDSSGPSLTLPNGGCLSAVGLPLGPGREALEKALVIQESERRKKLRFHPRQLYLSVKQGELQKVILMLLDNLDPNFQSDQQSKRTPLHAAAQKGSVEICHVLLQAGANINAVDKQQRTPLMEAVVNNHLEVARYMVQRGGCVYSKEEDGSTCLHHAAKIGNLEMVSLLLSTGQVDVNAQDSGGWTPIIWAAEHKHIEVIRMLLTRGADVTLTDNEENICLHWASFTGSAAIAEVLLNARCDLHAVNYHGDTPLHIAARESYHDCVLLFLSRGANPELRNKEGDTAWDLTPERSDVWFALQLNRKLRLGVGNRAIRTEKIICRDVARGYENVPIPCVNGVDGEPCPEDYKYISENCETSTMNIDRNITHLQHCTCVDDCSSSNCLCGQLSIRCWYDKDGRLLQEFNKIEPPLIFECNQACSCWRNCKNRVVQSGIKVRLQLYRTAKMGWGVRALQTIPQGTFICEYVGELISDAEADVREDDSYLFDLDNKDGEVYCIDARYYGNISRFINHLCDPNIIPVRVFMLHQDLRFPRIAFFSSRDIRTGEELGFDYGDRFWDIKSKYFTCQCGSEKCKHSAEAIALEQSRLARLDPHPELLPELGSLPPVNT

Compound	Potency	activity, negative = inhibition
S=C(NCCCN1CCOCC1)Nc1cccc(-c2nnc3n2CCCCC3)c1	inconclusive: 39.8 µM [inhibitor, single point]	–
COc1ccc(C(=O)/C=C/NCc2ccc(F)cc2)cc1OC	active: 50.1 µM	–
Cc1[nH]c(C)c(S(=O)(=O)N(C)Cc2ccccc2)c1C(=O)N1CCCCC1	inactive	–
O=C(Cn1ccn(-c2ccc(F)cc2)c(=O)c1=O)Nc1ccccc1C(F)(F)F	inactive	–
CCN(C(=O)CSc1nnc(Cn2nnc3ccccc32)o1)c1nc(-c2ccccc2)cs1	inactive	–
CC(C)(CO)[C@H](O)C(=O)NCCCO	inactive	–
CCOc1ccc(-c2nnc3ccc(SCC(=O)Nc4cc(C)on4)nn23)cc1	inactive	–
CN1CCN(C2=C(Cl)C(=O)N(CCc3ccccc3)C2=O)CC1	–	inconclusive: -68.2% [inhibitor]
CCCCOc1cccc(C2C(C(=O)c3ccc(C)o3)=C(O)C(=O)N2Cc2ccco2)c1 (stereo unspecified)	active: 39.8 µM	–
COCCNC(=O)COc1ncnc2ccc(Br)cc12	inconclusive: 7.08 µM [inhibitor, single point]	–
Cc1ccc(/C=N/NC(=O)c2nnn(-c3nonc3N)c2CN(C)C)o1	inconclusive: 3.16 µM [inhibitor, partial curve, poor fit]	–
CCCn1nnnc1SCC(=O)c1ccc2c(c1)OCCO2	inconclusive: 25.1 µM [inhibitor, single point]	–
CCCCS(=O)(=O)c1oc(-c2cccs2)nc1S(=O)(=O)c1ccc(F)cc1	inconclusive: 7.08 µM [inhibitor, partial curve, poor fit]	–
O=C(NCc1ccc(Cl)cc1)c1ccc2nc[nH]c2c1	inconclusive: 2.51 µM [inhibitor, full curve]	–
O=C(CNC(=O)c1ccc(Cl)cc1)NCCCn1ccnc1	inactive	–
CC(C)n1nnc2ccccc2c1=O	inconclusive: 70.8 µM [inhibitor, partial curve, poor fit]	–
COc1ccc(Br)cc1/C(C)=N/NC1=NCCN1	inconclusive: 10 µM [inhibitor, partial curve]	–
COc1ccc2c(=O)cc(-c3ccccc3)n(C)c2c1	inconclusive: 28.2 µM [inhibitor, single point]	–
Cc1cc(OCc2cc(C(=O)N(Cc3nccn3C)C(C)C)no2)cc(C)c1Cl	inconclusive: 89.1 µM [inhibitor, single point]	–
Cc1ccc(S(=O)(=O)N2CCN(c3nn(C)c(=O)n(C)c3=O)CC2)cc1C	–	inactive: -8.98% [at 12.7 µM]
Cc1[nH]c(=S)c(C#N)c(C)c1Cc1ccccc1	inconclusive: 2.24 µM [inhibitor, partial curve, poor fit]	–
O=C(Cn1nc(-c2ccccc2)nc(Cc2ccccc2)c1=O)Nc1ccc(Cl)cc1	inactive	–
CCC(C)(C)C1CCc2[nH]nc(C(=O)NCCCNC(=O)OC(C)(C)C)c2C1 (stereo unspecified)	–	inactive: -3.56% [at 2.33 µM]
CN(C)C(CNC(=O)c1ccc(NS(=O)(=O)c2ccc3[nH]c(=O)[nH]c3c2)cc1)c1ccccc1 (stereo unspecified)	inconclusive: 79.4 µM [inhibitor, single point]	–

Compound	Potency	activity, negative = inhibition
COc1ccc(NC(=O)c2ccc(-c3ccc(-c4noc(C)n4)cc3C)cc2)cc1N1CCN(C)CC1	active: 25.1 µM	–
COc1ccc(C2/C(=C(/O)c3ccc4c(c3)CC(C)O4)C(=O)C(=O)N2CCN2CCOCC2)cc1OC (stereo unspecified)	inconclusive: 79.4 µM [inhibitor, single point]	–
N#Cc1ccccc1CSc1ccccn1	inconclusive: 25.1 µM [inhibitor, partial curve, poor fit]	–
O=C(COC(=O)c1cc(S(=O)(=O)Nc2ccccc2Cl)ccc1O)Nc1nc2ccccc2s1	inconclusive: 89.1 µM [inhibitor, single point]	–
O=c1[nH]c(CN2CCN(c3ccccc3O)CC2)nc2ccccc12	inconclusive: 3.16 µM [inhibitor, full curve]	–
O=C(Nc1ccccc1C(=O)N1CCN(c2ccccc2)CC1)c1ccco1	–	inactive: -44.6% [at 12.7 µM]
C/C(=N\Nc1cccc2cccnc12)c1ccccc1O	inactive	–
OCC1(CCc2ccccc2)CCN(Cc2cc(Cl)ccc2O)CC1	inconclusive: 89.1 µM [inhibitor, partial curve, poor fit]	–
CCN(CC)C(=O)Cn1cc(S(=O)(=O)CC(=O)NCCc2ccc(OC)c(OC)c2)c2ccccc21	inconclusive: 79.4 µM [inhibitor, single point]	–
Cc1cccc(CC(=O)Nc2cc(=O)n(C)c(=O)n2C)c1	inconclusive: 39.8 µM [inhibitor, partial curve, poor fit]	–
O=C(Nc1nc2ccccc2s1)c1ccc(N2CCCCC2)c([N+](=O)[O-])c1	inconclusive: 15.8 µM [inhibitor, partial curve, poor fit]	–
O=C(Nc1nnc(C2=COCCO2)o1)c1cccc(Br)c1	inactive	–
O=C(Oc1c(Cl)cc(Cl)c2cccnc12)c1ccco1	inconclusive: 0.708 µM [inhibitor, partial curve, poor fit]	–
Cc1noc(N)c1C(=O)Nc1ccc(C(C)(C)C)cc1	inconclusive: 89.1 µM [inhibitor, partial curve, poor fit]	–
Cc1ccc(C2CC2C(=O)NNC(=S)Nc2cccc(C)c2)cc1 (stereo unspecified)	inconclusive: 22.4 µM [inhibitor, single point]	–
O=C(Nc1c2c(nn1-c1ccc(F)cc1)CS(=O)(=O)C2)C12CC3CC(CC(C3)C1)C2	inactive	–
O=C(NCC(c1ccc(F)cc1)N1CCOCC1)c1cccnc1Sc1ccccc1 (stereo unspecified)	inactive	–
CC(=O)Nc1ccc(C)c([N+](=O)[O-])c1	inactive	–
CCc1sc(C(=O)Nc2ncccc2O)cc1C	active: 35.5 µM	–
CCCCCCCCNC1=CC(=O)CC(C)(C)C1	inconclusive: 79.4 µM [inhibitor, single point]	–
C/C(=N\OC(=O)c1ccc(Br)cc1)c1ccccn1	active: 10 µM	–
C/C(CC1CC2=C(CC1(C)C)C(C)(C)CCC2)=N\NC(N)=S (stereo unspecified)	active: 31.6 µM	–
Fc1ccc(NC(=S)Nc2nccs2)cc1	inconclusive: 56.2 µM [inhibitor, partial curve, poor fit]	–
CC(C)Cn1c(/C=C/c2ccco2)nc2ccccc21	active: 7.94 µM	–

Compound	Potency	activity, negative = inhibition
COc1cccc(C2C(C(=O)/C=C/c3ccco3)=C(O)C(=O)N2CCN2CCOCC2)c1 (stereo unspecified)	active: 50.1 µM	–
O=C(Nc1ccc(S(=O)(=O)N2CCOCC2)cc1)c1ccc(S(=O)(=O)N2CCOCC2)cc1	inconclusive: 2 µM [inhibitor, full curve]	–
CCc1nnc(NC(=O)c2ccc3ccccc3n2)s1	active: 50.1 µM	–
COc1ccc(C(=O)NCc2ccccc2CN2CCCC2)cc1S(=O)(=O)Nc1ccc(C)cc1	inconclusive: 39.8 µM [inhibitor, single point]	–
O=[N+]([O-])c1cccnc1N1CCN(c2ccccc2F)CC1	inconclusive: 44.7 µM [inhibitor, partial curve]	–
N#C/C(=C\c1coc2ccccc2c1=O)C(N)=S	active: 1.78 µM	–
COC(=O)c1ccccc1NC(=O)C1CCCCC1C(=O)O (stereo unspecified)	inconclusive: 31.6 µM [inhibitor, full curve, poor fit]	–
Cc1cccc2cc(CN(CC3CCCO3)C(=S)NCc3ccco3)c(=O)[nH]c12 (stereo unspecified)	inactive	–
C/C(=N/NC(=O)CNc1ccc(C)cc1)c1ccc(Br)s1	active: 35.5 µM	–
COc1ccc(N(CC(=O)NCc2ccco2)S(=O)(=O)c2ccc(C)cc2)cc1	inconclusive: 79.4 µM [inhibitor, single point]	–
CN(c1ccccc1)S(=O)(=O)c1cccc(NC(=O)CSc2nnc(C3CC3)n2C)c1	inconclusive: 28.2 µM [inhibitor, single point]	–
COc1ccccc1C(=O)N/C(=C\c1cn(C)c2ccccc12)C(=O)NCCCn1ccnc1	inactive	–
N#Cc1cccc(NC(=O)Cn2c3[n+](c4ccc(C(F)(F)F)cc42)CCCCC3)c1	active: 8.91 µM	–
CN(C)c1ccc(C=Nc2ccc(N(C)C)cc2)cc1	inconclusive: 2 µM [inhibitor, full curve, poor fit]	–
CCOC(=O)C1=C(C)N(C)C(=S)NC1c1cc(OC)ccc1OC (stereo unspecified)	inconclusive: 89.1 µM [inhibitor, partial curve, poor fit]	–
Cc1noc(C)c1COc1ccc(C(=O)Nc2cccnc2)cc1	inconclusive: 50.1 µM [inhibitor, partial curve]	–
Cc1cc(C(=O)COC(=O)c2ccc(O)cc2)c(C)n1CC1CCCO1 (stereo unspecified)	inconclusive: 39.8 µM [inhibitor, partial curve, poor fit]	–
CS(=O)(=O)c1ccc2nc(NC(=O)CC3CCCC3)sc2c1	inconclusive: 8.91 µM [inhibitor, partial curve, poor fit]	–
COc1ccc(NS(=O)(=O)c2cccc(C(=O)NNC(=O)NCCCl)c2)cc1	active: 50.1 µM	–
CCOc1ccc(NS(=O)(=O)c2ccc(NC(=S)NC(=O)CC(C)C)cc2)cc1	inconclusive: 3.16 µM [inhibitor, full curve, poor fit]	–
O=C(NOC(=O)c1cc(Br)ccc1Cl)c1cccs1	inconclusive: 89.1 µM [inhibitor, single point]	–
N#C/C(C(=O)NCCc1ccccc1)=C1/N=C(NC(=O)c2cccs2)c2ccccc21	inconclusive: 50.1 µM [inhibitor, partial curve, poor fit]	–
O=C1CCC(C(=O)Nc2ccccc2N2CCCC2)=NN1	–	inactive: -6.3% [at 2.33 µM]
